Measured values: PubChem BioAssay AID686978 (National Center for Advancing Translational Sciences (NCATS), 2013)
Values joined by “and” are separate entries in the source; they are usually repeats but may differ in a detail not shown here. Identical values can stand only once. The campaign covered roughly 420,000 compounds. About 64,000 (15%) were called active. The shares of active, inactive and inconclusive entries below differ from those in the screen. The call rests on the fitted dose curve; in most records, active means well fitted inhibition curve with a large enough effect; inconclusive means small, poorly fitted or top-dose-only effect; inactive means flat fitted curve, though single readings scatter. No potency is given beside an inconclusive call; the fits are too rough. Some structures have more than one record in an assay (separate samples or runs), and their calls can disagree.

Experiment: qHTS for Inhibitors of human tyrosyl-DNA phosphodiesterase 1 (TDP1): qHTS in cells in absence of CPT; further: nearly all actives have a fitted effect of over 55% in size
Conditions: DT40 Tdp1-/- hTDP1 cells, no CPT, ATP luminescence, 48 h; activity change, negative = growth inhibition: at 46.2 µM (top of the series) unless noted
Outline: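 DT40 Tdp1-/-;hTDP1 cells, no CPT (DMSO vehicle only), 400 cells/well; compounds pin-transferred; ≥48 hr, 37 °C; CellTiter-Glo 30 min RT dark, luminescence read.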
On the % scale 0 is the no-effect control and ±100 the full control effect; potency means the concentration at half of the fitted maximal effect; tags describe the fitted curve by direction and shape.

Compound	activity change, negative = growth inhibition	Potency
CCOc1ccc(CN(C(=O)/C=C/c2ccco2)C2CCS(=O)(=O)C2)cc1 (centres undefined)	inactive: 2.01%	–
Cc1sc2ncnc(N3CCN(Cc4ccccc4)CC3)c2c1-c1ccc(F)cc1	–	inconclusive [inhibitor, single point]
Cn1ccnc1SCC(=O)Nc1cc(S(=O)(=O)N2CCOCC2)ccc1Cl	inconclusive: -30.7% [inhibitor]	–
COc1ccc(CCNC(=O)CCc2c(C)c3cc4c(C)coc4cc3oc2=O)cc1	–	inconclusive [inhibitor, partial curve, poor fit]
Cc1ccc(S(=O)(=O)Nc2cc(C(C(=O)OC(C)C)C(=O)C(F)(F)F)c(O)c3ccccc23)c(C)c1 (centres undefined)	–	inconclusive [inhibitor, single point]
O=[N+]([O-])c1ccc(-c2ccc(/C=N/O)o2)cc1	–	inconclusive [inhibitor, single point]
O=c1c2c3nc4ccccc4nc3n(CCN3CCOCC3)c2ncn1CCN1CCOCC1	inactive: -27.4%	–
CC(C)(C)OC(=O)N1CCC[C@H]1c1nnc(SCc2ccc(Cl)cc2)o1	–	active: 20.6 µM
COc1ccccc1C(=O)Nc1cc(-c2ccc(C)cc2)no1	–	inactive and active: 13 µM
CCOc1ccc2nc(/N=C/c3nc(-c4ccccc4)oc3O)sc2c1	–	inconclusive [inhibitor, single point]
O=C(CNCc1ccccc1)Nc1ccc(F)cc1	inactive: -10.1%	–
O=C(Nc1ccc(S(=O)(=O)N2CCCCC2)cc1)c1ccc(CN2CCOCC2)cc1	–	active: 23.1 µM
O=C1NC(N2CCOCC2)=N/C1=C/c1ccc2c(c1)OCO2	inconclusive: -33.7% [inhibitor]	–
Cc1ccccc1Cn1c(CN2CCN(c3cc(Cl)ccc3C)CC2)nc2c1c(=O)[nH]c(=O)n2C	–	active: 13 µM
COc1ccc(OC)c(CCNC(=O)Cn2cccc2C(=O)c2ccccc2)c1	–	inconclusive [inhibitor, full curve]
CC1(C)C=Cc2c(ccc3c2OC[C@@H](c2ccc(O)cc2O)C3)O1	–	inconclusive [inhibitor, single point]
Cc1cc(C)c(-n2c(C)cc(/C=C3/NC(=O)NC3=O)c2C)c(C)c1	–	active: 14.6 µM
Cc1nc(N2CCC(C)CC2)c2c(C)c(C(=O)Nc3ccccc3C(F)(F)F)sc2n1	–	inconclusive [inhibitor, single point]
Cn1cc(/C=N/NC(=O)c2ccccc2O)c2ccccc21	–	inconclusive [inhibitor, single point]
